Substitutions are numbered along the chain they refer to. In names and notes the source's numbering stands. Several values for one entry are separate records, joined by “and”; a condition that tells them apart may be missing. Equal values may be shown once. Read-outs that look alike come from different tables or passages of the source. Marks after values point to notes of the source that are not given here.
How the values were obtained:
[1] = Body weight and liver weight in ob/ob mice; format: in vivo; conditions: for Cumulative body weight change, mean body weight: FIG. 6A, single dose 10 mg/kg
Description: (§1) The efficacy of FGF21 antibodies conjugates was evaluated in two murine obese insulin resistant models—ob/ob mice and high-fat diet-induced obese mice. For both models, male mice (6-8 weeks of age for ob/ob, 12-14 weeks of age for DIO with high-fat diet initiated at 6 weeks of age) were housed 2-4/cage and FGF21 antibody conjugates were administered by SC injection. Body weight was measured daily in the morning. Glucose tolerance was assessed by oral glucose tolerance test. Briefly, mice were fasted for 4-5 hrs in the morning of the day of testing. A basal blood sample was obtained and blood glucose levels were determined using a portable glucometer.

[2] = target: Glut1 mRNA expression in differentiated 3T3-L1 adipocytes (Mus musculus, UniProt P16092+Q99N32); assay: Glut1 Taqman assay; format: cell-based; conditions: for EC50: 6 hrs
Description: Differentiated 3T3-L1 adipocytes were used to measure the Glut1 mRNA expression by qPCR method. Overnight serum starved day 10-14 differentiated 3T3-L1 adipocytes were treated with compounds for 6 hrs. Total RNA was extracted from these cells, and Glut1 and GAPDH mRNA expression was measured using a Quantitect Probe RT-PCR kit and running a quantitative real time PCR reaction in a Taqman machine (Applied Biosystems®). The bioactivity of the compounds was determined by a fold change in Glut1 mRNA levels normalized by the GAPDH mRNA levels from each sample. EC═values as measurements of the potency of the compounds were obtained from the dose response curves in the assay.
3T3-L1 adipocytes were seeded at day 8 in 24-well tissue culture plates (Falcon®, Cat#353047), and incubated in DMEM complete medium (10% FBS, 2 mM L-glutamine, 1% P/S) at 37° C., 5% CO2. […] The medium was aspirated, and then RNA extracted from the cells using the RNeasy mini Kit according to the manufacturer's instructions. RNA was measured at A260 nm using the Spectramax® Plus spectrophotometer.
In Glut1 Taqman assay, differentiated 3T3-L1 adipocytes were used to measure the Glut1 mRNA expression by real-time quantitative PCR (qPCR) method described below. Overnight serum starved day 10-14 differentiated 3T3-L1 adipocytes were treated with compounds for 6 hrs. Total RNA was extracted from these cells, and Glut1 and GAPDH mRNA expression was measured using a Quantitect Probe RT-PCR kit and running a real time quantitative PCR reaction in a Taqman machine. The bioactivity of the compounds was determined by a fold change in Glut1 mRNA levels normalized by the GAPDH mRNA levels from each sample. In cAMP assay, Chinese hamster ovary (CHO) cells over-expressing human GLP-1R(CHO-hGLP-1R) were seeded in 96-well plates in serum-free medium with 300 uM IBMX. Cells were incubated with compounds at RT for 1 hr. The cAMP levels were measured using a CisBio cAMP Kit according to manufacturer's instructions. The bioactivity of the compounds was determined by the EC50 values obtained from the assay (see Table 42).

[3] = Mouse pharmacokinetics of FGF21 antibody conjugates; format: in vivo, Swiss-Webster mice; conditions: for IV half-life / SC bioavailability / SC half-life: mice
Description: The PK of FGF21 antibody conjugates were examined in mice after IV or SC administration. […] Antibody conjugates concentrations in serum were determined using an ELISA which captured the FGF21 portion of the antibody conjugates through a monoclonal anti-hFGF21 antibody bound to a 96-well plate. FGF21 antibody conjugates bound to the plate were detected through an anti-hFc monoclonal antibody, and concentrations were determined using a standard curve of the PK dosing solution diluted into serum-containing assay buffer. SC bioavailability was calculated as the ratio of the area-under the curve (AUC) of the SC serum concentration profile divided by the AUC of the IV serum concentration profile.

ob/ob mice = assay: Oral glucose tolerance test in ob/ob mice (FGF21 conjugates); format: in vivo; conditions: for mean glucose AUC % during OGTT: FIG. 6B; for Mean Glucose AUC (% of vehicle control) during OGTT: FIGS. 4A/4B
Description: as §1

[4] = differentiated 3T3-L1 adipocytes, protein or antibody conjugate as labelled, read-out: Glut1 Taqman assay EC50
[5] = mouse, IV administration at 3 mg/kg (FIG. 3B)

Chain of Glut1 mRNA expression in differentiated 3T3-L1 adipocytes (P16092 22-822): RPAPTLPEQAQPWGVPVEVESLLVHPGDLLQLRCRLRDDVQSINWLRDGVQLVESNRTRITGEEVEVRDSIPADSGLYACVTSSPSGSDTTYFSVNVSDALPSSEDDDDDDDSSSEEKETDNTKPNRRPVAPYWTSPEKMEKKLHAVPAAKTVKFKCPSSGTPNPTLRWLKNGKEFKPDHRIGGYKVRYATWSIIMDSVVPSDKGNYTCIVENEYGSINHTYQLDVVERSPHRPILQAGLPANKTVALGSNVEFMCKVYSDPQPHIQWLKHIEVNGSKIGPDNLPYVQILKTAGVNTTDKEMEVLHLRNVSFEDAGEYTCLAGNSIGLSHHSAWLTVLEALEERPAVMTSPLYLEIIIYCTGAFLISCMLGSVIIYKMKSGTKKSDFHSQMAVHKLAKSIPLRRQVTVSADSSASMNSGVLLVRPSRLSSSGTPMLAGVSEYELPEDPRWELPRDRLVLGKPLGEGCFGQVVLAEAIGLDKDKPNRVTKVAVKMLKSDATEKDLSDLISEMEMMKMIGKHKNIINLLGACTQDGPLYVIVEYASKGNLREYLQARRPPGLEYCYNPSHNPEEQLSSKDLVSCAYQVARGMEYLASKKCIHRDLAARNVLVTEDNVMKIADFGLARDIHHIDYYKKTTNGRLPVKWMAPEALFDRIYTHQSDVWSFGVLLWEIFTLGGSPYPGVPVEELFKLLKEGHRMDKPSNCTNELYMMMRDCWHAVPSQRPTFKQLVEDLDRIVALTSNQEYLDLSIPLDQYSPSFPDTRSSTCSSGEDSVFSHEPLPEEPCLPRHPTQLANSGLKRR
Chain of Glut1 mRNA expression in differentiated 3T3-L1 adipocytes (Q99N32 whole entry): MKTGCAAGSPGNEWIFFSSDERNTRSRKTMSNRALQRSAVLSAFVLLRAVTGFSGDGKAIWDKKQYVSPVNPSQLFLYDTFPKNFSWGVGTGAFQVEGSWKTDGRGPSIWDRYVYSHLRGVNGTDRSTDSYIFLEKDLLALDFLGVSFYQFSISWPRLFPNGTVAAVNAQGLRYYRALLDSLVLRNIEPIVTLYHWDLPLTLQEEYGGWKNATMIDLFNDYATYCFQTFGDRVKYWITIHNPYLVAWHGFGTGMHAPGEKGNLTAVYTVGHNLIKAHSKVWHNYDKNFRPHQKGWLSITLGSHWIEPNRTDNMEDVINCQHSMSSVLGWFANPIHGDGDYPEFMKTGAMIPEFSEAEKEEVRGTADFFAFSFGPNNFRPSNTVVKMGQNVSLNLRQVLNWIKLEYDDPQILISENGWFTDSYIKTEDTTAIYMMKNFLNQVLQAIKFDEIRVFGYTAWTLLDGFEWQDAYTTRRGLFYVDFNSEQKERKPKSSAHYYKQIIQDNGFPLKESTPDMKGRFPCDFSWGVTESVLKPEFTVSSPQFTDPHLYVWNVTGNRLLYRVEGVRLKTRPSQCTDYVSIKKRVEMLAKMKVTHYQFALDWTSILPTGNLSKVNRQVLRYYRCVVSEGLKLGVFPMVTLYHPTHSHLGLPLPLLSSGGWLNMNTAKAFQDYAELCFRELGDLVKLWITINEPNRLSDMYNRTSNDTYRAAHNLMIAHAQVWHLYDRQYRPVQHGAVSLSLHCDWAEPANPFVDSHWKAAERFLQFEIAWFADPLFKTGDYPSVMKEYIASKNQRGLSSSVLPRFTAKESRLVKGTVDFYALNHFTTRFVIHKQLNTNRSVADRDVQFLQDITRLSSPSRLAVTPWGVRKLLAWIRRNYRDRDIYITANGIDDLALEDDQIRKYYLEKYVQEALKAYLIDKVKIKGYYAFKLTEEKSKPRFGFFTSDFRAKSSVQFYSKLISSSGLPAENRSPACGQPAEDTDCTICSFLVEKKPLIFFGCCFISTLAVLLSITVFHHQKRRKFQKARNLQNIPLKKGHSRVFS

B1: Ab-L1-FGF21ΔH-H125C: SEQ ID NO:7 combined with L1 at H125C and conjugated with h38C2 (conjugate)
light: ELQMTQSPSSLSASVGDRVTITCRSSQSLLHTYGSPYLNWYLQKPGQSPKLLIYKVSNRFSGVPSRFSGSGSGTDFTLTISSLQPEDFAVYFCSQGTHLPYTFGGGTKVEIKRTVAAPSVFIFPPSDEQLKSGTASVVCLLNNFYPREAKVQWKVDNALQSGNSQESVTEQDSKDSTYSLSSTLTLSKADYEKHKVYACEVTHQGLSSPVTKSFNRGEC
heavy: EVQLVESGGGLVQPGGSLRLSCAASGFTFSNYWMSWVRQSPEKGLEWVSEIRLRSDNYATHYAESVKGRFTISRDNSKNTLYLQMNSLRAEDTGIYYCKTYFYSFSYWGQGTLVTVSSASTKGPSVFPLAPSSKSTSGGTAALGCLVKDYFPEPVTVSWNSGALTSGVHTFPAVLQSSGLYSLSSVVTVPSSSLGTQTYICNVNHKPSNTKVDKRV[skipping human IgG1 Fc]
chain: PIPDSSPLLQFGGQVRQRYLYTDDAQQTEAHLEIREDGTVGGAADQSPESLLQLKALKPGVIQILGVKTSRFLCQRPDGALYGSLHFDPEACSFRELLLEDGYNVYQSEAHGLPLHLPGNKSPCRDPAPRGPARFLPLPGLPPALPEPPGILAPQPPDVGSSDPLSMVGPSQGRSPSYAS
[1]
  body weight gain in ob/ob mice (in words): reduce body weight gain
  Cumulative body weight change, mean body weight: 0.8 g
[2]; [4]
  EC50: 3.2 nM
[3]
  IV half-life: 37 h
  SC bioavailability: 67%
  SC half-life: 32 h
ob/ob mice
  glucose tolerance in ob/ob mice (in words): improve glucose tolerance
ob/ob mice; single dose 10 mg/ml (so in the source)
  mean glucose AUC % during OGTT: 51%
ob/ob mice; single SC dose 1 mg/kg
  Mean Glucose AUC (% of vehicle control) during OGTT: 87 % of vehicle control
ob/ob mice; single SC dose 3 mg/kg
  Mean Glucose AUC (% of vehicle control) during OGTT: 66 % of vehicle control

B2: Ab-L1-FGF21ΔH-D79C: SEQ ID NO:12 combined with L1 at D79C and conjugated with h38C2 (conjugate)
light: B1 light
heavy: B1 heavy
chain: B1 chain with D78C, C124H
[1]
  body weight gain in ob/ob mice (in words): reduce body weight gain
  Cumulative body weight change, mean body weight: 1.4 g
[2]; [4]
  EC50: 3.7 nM
[3]
  SC half-life: 20 h
[3]; listed as Ab-L1-FGF21ΔH-D790
  IV half-life: 17 h and 19 h
  SC bioavailability: 55% and 70%
[3]; [5]
  IV AUC: 176 µg·h/mL
  IV T½: 19 h
ob/ob mice
  glucose tolerance in ob/ob mice (in words): improve glucose tolerance
ob/ob mice; single dose 2 mg/kg
  mean glucose AUC % during OGTT: 86%
ob/ob mice; OGTT on day 6, SC 10 mg/kg on day 0 & 3
  Mean Glucose AUC (% of vehicle control): 53** % of vehicle control
ob/ob mice; OGTT on day 6, SC 10 mg/kg on day 3
  Mean Glucose AUC (% of vehicle control): 53** % of vehicle control
ob/ob mice; OGTT on day 6, SC 10 mg/kg on day 5
  Mean Glucose AUC (% of vehicle control): 87 % of vehicle control
ob/ob mice; OGTT on day 6, SC 10 mg/kg on day 6
  Mean Glucose AUC (% of vehicle control): 67** % of vehicle control

B3: Ab-L1-FGF21ΔH-A129C: h38C2 (SEQ ID NO:25 and 26), each arm linked through K99 to L1, each L1 conjugated to Cys129 of SEQ ID NO:10 (conjugate, listed as Homo sapiens)
heavy: B1 light
light: B1 heavy with A130C
chain: B1 chain with C124H, A128C
modifications: L1 linker via K99 to Cys129
[2]; 3T3-L1 adipocytes
  activity in Glut1 Taqman assay (in words): dose-dependent Glut1 induction
[2]; 3T3-L1 adipocytes, serum-free DMEM 0.2% BSA, Taqman quantitative real-time PCR, read-out: Glut1 RNA expression EC50
  EC50: 1.72 nM
[2]; [4]
  EC50: 2.7 nM
